# From PubChem BioAssay AID651820 (National Center for Advancing Translational Sciences (NCATS), 2012)
# The campaign covered roughly 340,000 compounds. About 12,000 (3.5%) were called active. Inconclusive means that the source gave no clear call. Such entries were picked first, then a sample of the others. The call rests on the fitted dose curve; in most records, active means well fitted inhibition curve with a large enough effect; inconclusive means small, poorly fitted or top-dose-only effect, or another doubt; inactive means no such curve, though single readings can be large or run the other way. Potencies of inconclusive entries are left out as doubtful fits.
# Assay: qHTS Assay for Inhibitors of Hepatitis C Virus (HCV)
# Conditions: Huh7.5.1 HCVcc-Cre (HCVcc is cell-culture hepatitis C virus) infection, luciferase reporter, 44 h; activity change, negative = inhibition: at 41.8 µM (top of the series)
# Method in brief: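 Antiviral activity was scored by luciferase reporter output from cells infected with HCVcc-Cre (~0.5 moi) in presence of compound, 44 h infection period, cells seeded 1,000/well 4 h prior.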
# On the % scale 0 is the no-effect control and ±100 the full control effect; potency means the concentration at half of the fitted maximal effect; tags describe the fitted curve by direction and shape.
Compound,Potency,"activity change, negative = inhibition"
CC(=O)Nc1cccc(-n2nnc(SCC(=O)c3ccccc3)n2)c1,"inconclusive [inhibitor, single point]",–
Fc1ccc(/C=N/Nc2nc3ccccc3[nH]2)cc1F,"inconclusive [inhibitor, single point]",–
c1ccc(CN2CCN(c3cnc4ccccc4n3)CC2)cc1,"inconclusive [inhibitor, partial curve]",–
COc1ccc2nc(N3CCCC(C(=O)NCCc4ccc(OC)c(OC)c4)C3)sc2c1 (stereo unspecified),"inconclusive [inhibitor, single point]",–
CCOc1ccc(-n2c(C)cc(/C=N/N(C)C)c2C)cc1,"inconclusive [inhibitor, partial curve]",–
OC(CON=C1c2ccccc2-c2ccccc21)CN1CCNCC1 (stereo unspecified),active: 2.51 µM,–
Cc1ccc(O)c(C(=O)CC(=O)c2ccc(Cl)cc2)c1,active: 22.4 µM,–
C[n+]1ccccc1COc1ccc(C(C)(C)C)cc1,"inconclusive [inhibitor, full curve]",–
O=C(NCCNC(=O)c1ccc(-c2ccc(Cl)c(Cl)c2)o1)c1cnccn1,"inconclusive [inhibitor, single point]",–
COc1ccc(-c2noc(CN(C(=O)c3ccc4c(c3)OCO4)C(C)C)n2)cc1OC,"inconclusive [inhibitor, partial curve, poor fit]",–
Cc1cc(C)cc(N(C(C)C(=O)NCCC2=CCCCC2)S(C)(=O)=O)c1 (stereo unspecified),"inconclusive [inhibitor, partial curve]",–
Cc1cc(NC(=O)CSc2ccc3nnc(-c4ccc(Cl)cc4)n3n2)no1,"inconclusive [inhibitor, single point]",–
COc1ccc(C2c3ccc4ccccc4c3Oc3ncn4nc(Cc5ccccc5)nc4c32)cc1OC (stereo unspecified),–,inactive: 20.4%
COc1cc2c(cc1OC)CN(CC(O)c1ccccc1)CC2 (stereo unspecified),–,inactive: 1.76%
COc1cc(OCc2ccccc2)c2c(CCC(=O)O)cc(=O)oc2c1,–,inactive: -3.57%
Cc1ccc(-n2c(C)cn(C(=O)c3ccccc3)c2=S)cc1,"inconclusive [inhibitor, single point]",–
CC1CCCN(C(=O)COC(=O)C2=COCCO2)C1 (stereo unspecified),–,inactive: 5.99%
CCN(CC)S(=O)(=O)c1cc(NC(=O)CSc2nnc(N)s2)ccc1C,–,inactive: -23.2%
CC(=O)Nc1cccc(/C(C)=N\NC(=O)c2ccc(Cn3nc([N+](=O)[O-])c(Cl)c3C)o2)c1,"inconclusive [inhibitor, single point]",–
Oc1ccc(C[C@@H]2CNCCN2CCCCC2CCCCC2)cc1,"inconclusive [inhibitor, single point]",–
COc1ccccc1C(CNC(=O)c1cccc(NS(=O)(=O)c2ccc(Br)cc2)c1)N(C)C (stereo unspecified),"inconclusive [inhibitor, single point]",–
CN(C)N(C(=O)c1cc(-c2cccs2)nn1-c1ccccc1)C1CCS(=O)(=O)C1 (stereo unspecified),–,inactive: -22.4%
O=C(Nc1cc(N2CCOCC2)ncn1)NC1(C(F)(F)F)Oc2ccc(Cl)cc2O1 (stereo unspecified),"inconclusive [inhibitor, partial curve]",–

Compound,Potency,"activity change, negative = inhibition"
COc1ccc(CNc2nc3ccccc3s2)cc1OC,active: 11.2 µM,–
Cc1cccc(OCCn2c(NC(=O)c3ccco3)nc3ccccc32)c1,"inconclusive [inhibitor, partial curve]",–
Cc1ccc(F)cc1CNC(=O)c1cc(COc2ccc3ncccc3c2)on1,active: 2.82 µM,–
NC(=O)COc1ccc2cc(-c3ccc(F)cc3)c(=O)oc2c1,–,inactive: 28.5%
CC(=O)C(C(c1ccccc1)N1CCCc2ccccc21)N1CCOCC1 (stereo unspecified),–,inactive: 6.68%
CCOCCCNC(=O)C(NC(=O)c1ccc(NC(C)=O)cc1)c1ccc(C)cc1 (stereo unspecified),–,inactive: 3.94%
O=C1c2ccccc2NC(c2ccc(-c3cccc([N+](=O)[O-])c3)o2)N1O (stereo unspecified),–,inactive: -21%
CCOC(=O)c1cnn(-c2ccccc2)c1-c1ccccc1,"inconclusive [inhibitor, partial curve]",–
O=C(CSc1ccc2c(c1)OCCO2)N1CCN(c2ccccc2O)CC1,"inconclusive [inhibitor, single point]",–
O=C(Nc1ccc(Cl)cn1)c1cc2ccccc2o1,"inconclusive [inhibitor, partial curve]",–
O=C(N/N=C/c1ccc(-c2cccc(C(F)(F)F)c2)o1)c1ccccc1Br,"inconclusive [inhibitor, partial curve]",–
CC1(C)CC(=O)c2sc(NC(=O)CN3C(=O)CCC3=O)nc2C1,"inconclusive [inhibitor, single point]",–
CN(CC(=O)N1CCCc2c1c(=O)oc1ccc(O)cc21)Cc1ccccc1,"inconclusive [inhibitor, single point]",–
CC(C)(C)NC(=O)CN(C(=O)c1csnn1)c1ccccc1-c1ccccc1,"inconclusive [inhibitor, single point]",–
CCOC(=O)CNc1ccc2c(c1)OCO2,"inconclusive [inhibitor, single point]",–
N#CCCn1cc(C(=O)O)c(-c2cc3ccccc3o2)n1,"inconclusive [inhibitor, partial curve]",–
CC1C(=O)N2CCCc3cc(NC(=O)C(=O)NCCCc4ccccc4)cc1c32 (stereo unspecified),"inconclusive [inhibitor, single point]",–
Cc1c(-c2ccccc2)nc2ccccc2c1C(=O)Nc1ccncc1,"inconclusive [inhibitor, single point]",–
Cc1cccc(NC(=O)COC(=O)c2ccccc2-c2nc3ccccc3s2)c1C,"inconclusive [inhibitor, partial curve]",–
Cc1ccc(N2C(=O)c3ccccc3C2=O)cc1C,–,inactive: -6.85%
COC(=O)c1ccc(C[n+]2ccccc2)cc1,–,inactive: -3.18%
COc1cccc(Oc2ccc(C(F)(F)F)cc2NC(=O)CN2C(=O)NC3(CCCC3)C2=O)c1,"inconclusive [inhibitor, single point]",–
CCn1c(=O)cc(SCC(=O)NCCCN2CCN(c3ccc(F)cc3)CC2)c2ccccc21,"inconclusive [inhibitor, partial curve]",–
